Measurements: PubChem BioAssay AID485290 (National Center for Advancing Translational Sciences (NCATS), 2010)
About 990 (0.28%) of roughly 350,000 compounds were called active. Inconclusive means that the source gave no clear call. Such entries were picked first, then a sample of the others. Calls follow the shape of the dose curve; as a rule, active = well fitted inhibition curve with a large enough effect; inconclusive = small, poorly fitted or top-dose-only effect; inactive = no such curve, though single readings can be large or run the other way. A potency beside an inconclusive call is a rough fit, not a confirmed value.

target: Tyrosyl-DNA phosphodiesterase 1 (Homo sapiens) (UniProt Q9NUW8); experiment: qHTS Assay for Inhibitors of Tyrosyl-DNA Phosphodiesterase (TDP1); conditions: recombinant TDP1, AlphaScreen DNA substrate cleavage; activity change, negative = inhibition: at 130 µM (top of the series) unless noted; also: nearly all actives have a fitted effect of over 40% in size
Outline: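 Enzyme-compound mixtures sat 15 min at room temperature, followed by a 5 min reaction with 15 nM final substrate and 10 min with AlphaScreen beads. Recombinant human Tdp1 was used at 1 nM final.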
% is scaled to controls: 0 for no effect and ±100 for the full control effect; potency is read from the fitted curve at half-maximal effect; tags tell the direction and shape of the fitted curve.

Chain of UniProt Q9NUW8 (Q9NUW8 whole entry, looked up): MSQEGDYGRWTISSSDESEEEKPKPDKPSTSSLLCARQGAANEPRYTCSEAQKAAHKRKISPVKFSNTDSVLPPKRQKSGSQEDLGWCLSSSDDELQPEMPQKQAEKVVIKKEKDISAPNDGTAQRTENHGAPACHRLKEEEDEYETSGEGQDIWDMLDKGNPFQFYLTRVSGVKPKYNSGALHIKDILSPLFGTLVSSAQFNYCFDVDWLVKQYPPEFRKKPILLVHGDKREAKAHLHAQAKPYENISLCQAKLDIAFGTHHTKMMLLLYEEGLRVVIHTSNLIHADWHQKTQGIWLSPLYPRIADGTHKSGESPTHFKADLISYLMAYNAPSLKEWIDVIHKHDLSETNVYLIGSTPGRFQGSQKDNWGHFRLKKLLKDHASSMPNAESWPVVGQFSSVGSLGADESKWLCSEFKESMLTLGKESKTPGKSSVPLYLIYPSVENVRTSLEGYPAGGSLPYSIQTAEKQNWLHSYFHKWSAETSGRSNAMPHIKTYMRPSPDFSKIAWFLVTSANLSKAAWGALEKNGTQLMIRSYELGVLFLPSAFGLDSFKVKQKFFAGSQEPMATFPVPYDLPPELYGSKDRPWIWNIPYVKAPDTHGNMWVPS

Activity change, negative = inhibition, inactive:
CCCN1C=CC(=C2C(=O)c3ccccc3C2=O)C=C1 0%, COc1ccc(NC(=O)C2CCCN(c3ncnc4onc(-c5ccc(F)cc5)c34)C2)cc1 (configuration not stated) 2.02%, CCCCCC(=O)Nc1ccc(S(=O)(=O)Nc2nccc(C)n2)cc1 -1.16%, N#CC1=C(S)N=C(N)C(c2nc(-c3ccccc3)cs2)C12CCCC2 (configuration not stated) 6.06%, O=C(c1cc2nc(-c3ccco3)cc(C(F)(F)F)n2n1)N1CCN(c2ccc(F)cc2)CC1 4.54%, CC(C)(C)NC(=O)NC(=O)CN1CCN(S(=O)(=O)c2ccccc2)CC1 4.32%, Cn1c(SCC(=O)NCc2ccco2)nnc1C1CCCC1 0.775%, Cc1ccc(-n2nnc3c(=O)n(CC(=O)N4CCCC4)cnc32)cc1 3.21%, Cc1nn(-c2ccccc2)c(N2CCCC2)c1/C=N/NC(=O)c1cccc(S(=O)(=O)Nc2ccc(Cl)cc2)c1 8%, COc1ccc(NS(=O)(=O)c2ccccc2C(=O)O)cc1 2.76%, O=S(=O)(c1ccc(OC(F)(F)F)cc1)N1CCC(c2nc3ccccc3s2)CC1 0%, CC12CN3CC(c4ccccc4)(CN(C1)C3c1ccc(Cl)cc1)C2=O (configuration not stated) -2.33%, Cc1ccc(Cl)cc1NC(=O)C(NS(=O)(=O)c1ccc2c(c1)CCC(=O)N2)c1ccccc1 (configuration not stated) 8.09%, O=C(CSc1nnnn1-c1ccccc1)NC(=O)NCc1ccco1 -1.96%, CC(C)NC(=O)COC(=O)c1ccc(NS(=O)(=O)c2ccc3c(c2)OCCO3)cc1 7.87%, COc1ccc(-c2nc3ccccc3o2)cc1NC(=O)c1ccc(-c2ccc(Br)cc2)o1 2.86% [at 2.28 µM], CCN(CC)c1ccc(C=Nc2ccc(C)cc2)c(O)c1 5.46%, CNC(=O)c1ccc(-c2ccccc2)s1 0%, Cc1cccc2sc(N(CCCN(C)C)C(=O)c3nc4ccccc4s3)nc12 -3.35%, CCc1nn(-c2ccccc2)c2nc(-c3ccc(O)cc3)c3cc(OC)c(OC)cc3c12 1.91% [at 2.28 µM], C=CCNc1ncnc2c1cnn2-c1ccc(Cl)cc1 -2.63%, CCCCC(=O)N/C(N)=N/c1nc2ccccc2o1 2.35%, O=C(CNCCc1ccc(Cl)cc1Cl)NCc1ccco1 4.76%, COc1ccc(NC(=O)c2cc(S(=O)(=O)N3CCCC(C)C3)cn2C)c(OC)c1 (configuration not stated) 5.33%

Activity change, negative = inhibition, inconclusive:
COc1cc(/C=C2\CCCc3c2nc2ccccc2c3C(=O)O)cc([N+](=O)[O-])c1O -35.6% [inhibitor] [at 0.0935 µM]

Potency, inconclusive:
COc1cc(Cl)c(C)cc1NC(=O)CSc1ncc(S(=O)(=O)c2ccc(C(C)(C)C)cc2)c(=O)[nH]1 63.1 µM [inhibitor, single point], O=C(O)CCCNC(=O)/C=C/c1ccco1 7.08 µM [inhibitor, full curve], CCOc1ccc(-n2c(=O)c3sccc3n(CC(=O)Nc3cccc(OC)c3)c2=O)cc1 35.5 µM [inhibitor, single point], Cc1cc(C)cc(C(=O)NCC(=O)OCC(=O)N2c3ccccc3NC(=O)C2(C)C)c1 12.6 µM [inhibitor, full curve], O=[N+]([O-])c1cc(/C=N\Nc2nccs2)ccc1O 3.16 µM [inhibitor, single point], O=C(Oc1ccc(OC(=O)C2CCC2)cc1)C1CCC1 11.2 µM [inhibitor, full curve], CN(C)C(=O)c1ccc(-c2nc(N(C)C)c3ccccc3n2)cc1 39.8 µM [inhibitor, single point], O=C(O)c1cc(-c2ccc(/C=N/N3C(=O)C4C5C=CC(C6CC56)C4C3=O)o2)ccc1Cl (configuration not stated) 28.2 µM [inhibitor, partial curve], Cc1cnc(C(=O)Oc2ccc(-c3ccccc3)cc2)cn1 0.891 µM [inhibitor, full curve, poor fit], CCn1cc2nc(SCC(=O)Nc3ccccc3C(F)(F)F)n(Cc3ccc(C)cc3)c(=O)c2n1 28.2 µM [inhibitor, single point], c1ccc(Oc2cccc(OCCCCSc3ncccn3)c2)cc1 20 µM [inhibitor, full curve], COc1cc2c(-c3ccc(O)cc3)nc3c(c(C)nn3-c3ccccc3)c2cc1OC 14.1 µM [inhibitor, full curve, poor fit], CCN(Cc1cc(=O)oc2cc(C)ccc12)c1ccccc1 100 µM [inhibitor, partial curve, poor fit], Cc1cc(C)cc(-n2nnc(-c3nsc(NC(=O)c4ccccc4Cl)n3)c2C)c1 28.2 µM [inhibitor, single point], CCOC(=O)c1ccccc1NS(=O)(=O)c1ccc(OCC)cc1 22.4 µM [inhibitor, single point], O=C(N/N=C/c1ccc(OC(=O)c2ccccc2Cl)cc1)c1cc(O)cc(O)c1 1.58 µM [inhibitor, full curve], O=C(O)c1cc(N/N=C/c2c[nH]c3ccccc23)ccc1Cl 79.4 µM [inhibitor, single point], O=C(Nc1nc(-c2ccco2)c(-c2ccco2)s1)C1CC(=O)N(c2ccc3c(c2)OCCO3)C1 (configuration not stated) 2 µM [inhibitor, full curve], Cc1c(NC(=O)C(C)OC(=O)/C=C/c2ccco2)c(=O)n(-c2ccccc2)n1C (configuration not stated) 25.1 µM [inhibitor, partial curve, poor fit], COc1ccc(N2Cc3cccc(C(=O)Nc4cccc(F)c4)c3C2=O)cc1 35.5 µM [inhibitor, single point], O=C(CCl)N1c2ccccc2SCC1c1ccccc1 (configuration not stated) 14.1 µM [inhibitor, single point], Nn1cc(Br)c(=O)[nH]c1=O 15.8 µM [inhibitor, single point], Cc1ccc(/C=C2\SC(=S)N(/N=C/c3cc([N+](=O)[O-])ccc3O)C2=O)o1 31.6 µM [inhibitor, partial curve], N#CC1=C(N)n2c(s/c(=C\c3ccco3)c2=O)=C(C#N)C1c1ccco1 (configuration not stated) 3.55 µM [inhibitor, full curve], CCc1ccccc1N1CC(C(=O)Nc2nccs2)CC1=O (configuration not stated) 89.1 µM [inhibitor, single point], O=C(N/N=C/c1ccc(N2CCCC2)c([N+](=O)[O-])c1)c1cccnc1 100 µM [inhibitor, single point], CCCCN1C=C(C(=O)OC)C(c2ccccc2Cl)C(C(=O)OC)=C1 25.1 µM [inhibitor, single point], Cc1ccccc1OCC(=O)N/N=C/c1ccc([N+](=O)[O-])o1 79.4 µM [inhibitor, single point], O=C(Nc1ccc(Cl)c(Cl)c1)c1ccc(Cn2cc(Cl)cn2)cc1 0.0398 µM [inhibitor, full curve, poor fit], CCOc1c(C)cnc2c1c(=O)n(Cc1ccccc1Cl)c(=O)n2C 56.2 µM [inhibitor, partial curve, poor fit], CCOc1cc(N2CCOCC2)c(OCC)cc1NS(=O)(=O)c1ccc(Cl)s1 44.7 µM [inhibitor, partial curve], COC(=O)C1=C(NC(=O)CCCCl)CCS1 11.2 µM [inhibitor, full curve], Cc1c(Cl)cnc(NC(=O)COC(=O)/C=C/c2ccco2)c1Cl 28.2 µM [inhibitor, full curve], CCn1c(SCC(=O)Nc2ccc(NC(=O)c3ccco3)c(OC)c2)nc2ccccc2c1=O 39.8 µM [inhibitor, single point], O=C(O)c1ccccc1NS(=O)(=O)c1cccc(-n2sc3ccccc3c2=O)c1 89.1 µM [inhibitor, single point], [N-]=[N+]=Nc1ccc(C(=O)CSC[C@H](NC(=O)CC[C@H](N)C(=O)O)C(=O)NCC(=O)O)cc1 28.2 µM [inhibitor, single point], Cc1ccc(-n2ncc(C#N)c2/N=C/N2CCCCCC2)cc1 89.1 µM [inhibitor, single point], Cc1ccccc1NC(=O)CSc1nc(-c2cccs2)nc2cc(=O)[nH]n12 56.2 µM [inhibitor, partial curve]

Potency, active:
O=C(O)c1ccc(Cl)c(S(=O)(=O)N2CCCC2)c1 50.1 µM, CC(=O)Nc1ccc2c(COC(=O)CC3Sc4ccccc4NC3=O)cc(=O)oc2c1 (configuration not stated) 20 µM, O=C(O)CN1C(=O)/C(=C/c2ccc(N3CCCCC3)o2)SC1=S 50.1 µM, Cc1ccc(-n2ncc3c2CC(C)(C)CC3NC(=O)CCc2ccncc2)cc1 (configuration not stated) 22.4 µM, COCCN(C(=O)COC(=O)Cc1coc2cc(C)ccc12)c1c(N)n(Cc2ccccc2)c(=O)[nH]c1=O 28.2 µM, CC(=O)Nc1ccc(S(=O)(=O)NCCC(=O)OCC(=O)N2CCN(C(=O)c3ccco3)CC2)cc1 39.8 µM, Cc1ccc(CC(=O)CCc2ccccc2)cc1 79.4 µM, O=C(CSc1nnc(SCc2ccccc2)s1)N/N=C/c1c[nH]c2ccccc12 10 µM, O=C1CCCC(O)=C1N=Nc1ccc(C(=O)O)cc1 2.24 µM
